The supplement of paper PMC3334620
In all, about 33,000 sequences were measured (“E-score (-0.5 to 0.5)”: median about -0.012, highest 2% from about 0.29 on). This is one part of the list.

These sequences were tested against T1, Ybr033w (UniProt P38073) (assay: PBM E-score (8-mer binding enrichment) (E-score (-0.5 to 0.5)); higher = stronger / more preferred TF binding; most listed sequences are background and not binding sites). Settings: protein concentration: 200 nM; construct: GST-full length.
T1 sequence: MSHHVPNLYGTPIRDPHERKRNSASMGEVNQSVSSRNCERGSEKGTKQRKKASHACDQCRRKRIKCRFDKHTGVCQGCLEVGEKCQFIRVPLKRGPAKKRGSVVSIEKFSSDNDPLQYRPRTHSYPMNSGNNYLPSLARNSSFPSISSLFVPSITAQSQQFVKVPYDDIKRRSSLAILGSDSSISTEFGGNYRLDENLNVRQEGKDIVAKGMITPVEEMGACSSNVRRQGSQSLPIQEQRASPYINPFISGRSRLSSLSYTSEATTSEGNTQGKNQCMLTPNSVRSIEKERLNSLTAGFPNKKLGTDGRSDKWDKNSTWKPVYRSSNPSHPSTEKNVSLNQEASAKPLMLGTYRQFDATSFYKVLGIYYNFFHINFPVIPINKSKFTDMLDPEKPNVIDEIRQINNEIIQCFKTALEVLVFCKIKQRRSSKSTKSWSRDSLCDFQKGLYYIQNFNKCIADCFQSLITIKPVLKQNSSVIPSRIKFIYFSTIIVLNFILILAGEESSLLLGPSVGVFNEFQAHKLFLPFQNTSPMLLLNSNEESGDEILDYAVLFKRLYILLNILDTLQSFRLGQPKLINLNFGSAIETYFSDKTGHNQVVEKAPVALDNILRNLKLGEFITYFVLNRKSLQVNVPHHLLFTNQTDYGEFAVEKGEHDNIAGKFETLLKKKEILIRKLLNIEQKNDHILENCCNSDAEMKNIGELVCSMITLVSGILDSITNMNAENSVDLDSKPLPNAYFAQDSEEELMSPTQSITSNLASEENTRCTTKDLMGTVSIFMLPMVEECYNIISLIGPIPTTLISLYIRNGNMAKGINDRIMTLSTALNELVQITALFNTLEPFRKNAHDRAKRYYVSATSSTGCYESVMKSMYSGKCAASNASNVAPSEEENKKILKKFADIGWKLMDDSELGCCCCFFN
Summary of the method: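 Full-length yeast transcription factors or their DNA-binding domains, GST-tagged and expressed with PURExpress, were applied at about 100-200 nM to universal all-10-mer Agilent arrays. These arrays had been made double-stranded by primer extension on fresh or once-stripped slides. Detection used fluorescent anti-GST, normalisation used masliner, and E-scores for ungapped eight-base words pooled with reverse complements came from the Universal PBM Analysis Suite.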

Sequence	PBM E-score
CGTACCTC	-0.0947
GGCGAACA	-0.192
CAACGCAA	0.0507
GCTAACAC	0.0723
CGTCGTCC	-0.226
CCCGGCGG	-0.24
ACATGGGG	-0.0856
ACTAATTA	0.281
GCCGATCA	-0.0313
GATTCGAA	0.199
ACCGGGCT	-0.155
AGATACAC	0.108
CATCACAC	0.13
AGATTGCT	0.0604
CACCATCC	-0.132
GAACAATC	0.323
AAATCAGC	0.131
GTTGAATA	0.21
AGTGATGC	0.115
CTTCGCCC	-0.143
CATGCAGG	-0.209
AGTTCCTC	-0.0855
CCAACCGG	-0.108
ATAGACAC	0.082
TGGACCAA	0.0158

Sequence	PBM E-score
ATATGGGG	-0.233
AAGAAGTA	0.0474
AAGATACA	0.203
GGTCTGTA	0.0247
CAGTCCCC	-0.25
ATGGGGGC	-0.349
CACCAAGC	-0.106
AGAGAGCG	-0.192
ACTAGACG	0.0224
CACAAATG	0.0361
CAACGGAA	0.0665
GCGGACCC	-0.301
GTACGGCA	-0.117
ACCGGCAT	0.0252
CCAGTGAC	-0.172
ATATGAAC	0.0921
GTCACGGA	-0.108
CAGATTGG	-0.153
GTCCGGCA	-0.11
AAGGCGAA	-0.0953
ACGTTTTC	0.0042
AAGAATTC	0.0133
GTCTGAAC	0.0247
AGGCAACC	-0.0913
ATTAAAAA	0.297

Sequence	PBM E-score
TCGTGAGA	-0.108
AACCAGGC	-0.086
CTCGCACC	-0.203
AAAGGCGC	-0.197
TCAAGTCA	0.104
TCCATGCA	0.0976
AGCACGCT	-0.256
ACTCTACA	-0.0448
CACTCCGA	-0.0716
ACGAAGGA	-0.0199
ACTGTAGG	0.158
TCATTAAA	0.319
CTTACGTC	-0.0834
AAAGGTCG	-0.228
GTTATGGA	0.108
CTTAGTAA	0.134
TCTTAAAA	0.153
GAATAGCC	-0.0559
GAAGGACC	-0.204
ACGGCGTG	0.0382
AGTGGTTG	0.117
CGAGTTTC	0.1
AATAGGCA	0.146
GAGGCTAC	-0.271
ATGAACAA	0.239

Sequence	PBM E-score
AACAGCGA	-0.176
AGCTGTAT	-0.031
GGACGCGA	-0.0773
CCGCTAGC	-0.201
TAGCAACA	0.147
ACCTTACC	0.0718
ACCAATAG	-0.167
CCTCTGCC	-0.254
AAGCACCA	-0.116
AATGCCCG	-0.0749
CGAATGTC	-0.0311
AGTGCTTG	0.0734
AACATACG	0.163
CTCTCCTA	-0.0592
ATTTGCCG	0.135
GGCCTGAC	-0.199
ACATTAGG	-0.0103
AAGCTCGT	-0.0751
ATTCTTTC	0.137
GAGCGAGA	0.0977
GACAAGCA	-0.192
CACTGGAA	0.0564
ACTGGAAA	0.0843
ATGTGGGA	0.0288
GAACATTC	0.282

Sequence	PBM E-score
GCTGTACA	-0.131
AATTTGCG	0.132
CGAGGGTC	-0.397
GAGGCGAA	-0.0281
CTTGACAA	0.00502
AGGCGACC	-0.298
GATCATCA	0.0496
TCACCTGA	-0.136
ATCGATCA	0.0799
ACAGAAGT	0.0131
CCATGGAC	-0.163
CCGTAAAC	0.113
GCCAGCCC	-0.332
CCGCAGGA	0.00576
CGAGCCTC	-0.169
CGCCGATA	-0.0854
ACGCCTCT	-0.0972
ACGAAGGC	-0.109
ATCGCGCG	0.1
ACCGAAGC	-0.195
GTACACAA	0.0684
GTACAACA	0.0897
CATGCCGG	-0.0475
ATACATGC	-0.0732
CGCGTTCA	0.0712

Sequence	PBM E-score
CTATGACA	0.11
GCAGGAAC	0.00918
CGTCTTGA	0.0381
ACGATGGC	-0.036
AACAGAAA	0.169
TACTGGGA	0.14
ACCCGAGG	-0.231
AGCGAGGG	-0.183
CGAAAGAA	0.0925
AGTGCGAC	-0.186
TGTGTTAA	0.277
ATGGTTTA	0.235
CCATTATA	0.018
CTCGTTGC	0.0368
GTGTAATA	0.133
ATGGCCAA	0.0926
GCGGGCCA	-0.23
CTCTTGTC	-0.0901
AGATTTAG	0.215
TACATTAA	0.345
ACATGGTA	0.0129
CAAGGGCA	-0.109
ACGCCATC	-0.127
ATGAGACC	-0.157
ATCAAAGG	0.105

Sequence	PBM E-score
CCACCGAA	-0.0975
ATTCATGA	0.0701
CGGACAAG	-0.0192
CACTCCCG	0.0398
CTAAGAAG	0.172
GAGCGACC	-0.188
CAAACCCA	0.119
CGTATCCA	-0.0535
GAATAGTA	0.183
AACACGCC	-0.211
GGATAAGA	-0.0485
AGTAAATC	0.274
AAGATTGA	0.207
GAAATGTC	0.00409
ACATTTAT	0.184
GCTCTTTA	0.119
ACTGAGAA	0.122
GCAACCCC	-0.224
ACGGACTC	-0.207
CGGGATTA	0.312
ATAAATGG	0.12
ATGACGAG	-0.187
AGCATTAG	0.126
ATCGTTGA	0.176
CACCTTAG	-0.0996

Sequence	PBM E-score
ATCGTCAA	0.0944
ACCCACGT	0.0118
CTCTCTGC	-0.105
AAACGGTA	0.109
GTATCGGA	0.0102
ACACGAAT	0.177
CAGCTCGG	-0.214
AACCTAAT	0.156
AAGCCAGA	-0.0756
CTGCCTGA	0.0559
AATATGAA	0.242
ATTCCGCG	0.0377
ACTACCGA	-0.154
ATCACAAT	0.147
CACGGAAA	0.0601
GAGTCCGC	-0.393
TAGATGGA	0.148
GTAGAATA	0.164
GGACGCAC	-0.094
CTAGCAAC	0.0221
ACGTGACG	-0.0117
TCCACGCA	-0.0247
ACGGACAT	0.00601
AGCAGACA	-0.168
CACAAAGG	0.084

Sequence	PBM E-score
CCACAGCC	-0.229
CCCAGTCC	-0.0616
CCCACTGA	-0.134
CTCCAGAG	-0.185
GTGACATA	0.087
AGGACTGG	-0.00354
CCTCCTAG	-0.00706
GGGTGTAA	-0.0396
AATTCAAA	0.207
ACCAAGGG	-0.0531
ATAGTCAA	0.104
AGGGTGCC	-0.355
GGTCGCGA	0.113
ATCCTAAA	0.0666
GGACATGA	-0.0967
GCAAGTCA	-0.0929
ACTGACAA	0.12
ACAACTAA	0.195
ACCTAATA	0.272
